Experimental data taken from article PMC8915838 (Proceedings of the National Academy of Sciences of the …, 2022).
Several values for one entry are separate records, joined by “and”; a condition that tells them apart may be missing. Equal entries are not always repeated.

Biological target: the molecule itself
Assay: cross-linking

B1: LTB4 receptor 1 (BLT1) (receptor)
chain: MNTTSSAAPPSLGVEFISLLAIILLSVALAVGLPGNSFVVWSILKRMQKRSVTALMVLNLALADLAVLLTAPFFLHFLAQGTWSFGLAGCRLCHYVCGVSMYASVLLITAMSLDRSLAVARPFVSQKLRTKAMARRVLAGIWVLSFLLATPVLAYRTVVPWKTNMSLCFPRYPSEGHRAFHLIFEAVTGFLLPFLAVVASYSDIGRRLQARRFRRSRRTGRLVVLIILTFAAFWLPYHVVNLAEAGRALAGQAAGLGLVGKRLSLARNVLIALAFLSSSVNPVLYACAGGGLLRSAGVGFVAKLLEGTGSEASSTRRGGSLGQTARSGPAALEPGPSESLTASSPLKLNELN
stoichiometry N: 2 and 3
